# Results from the supplement of paper PMC3724861.
# The other results are listed elsewhere or left out.
# System: T1, Caupolican (Caup) homeodomain DNA-binding domain
# T1 sequence: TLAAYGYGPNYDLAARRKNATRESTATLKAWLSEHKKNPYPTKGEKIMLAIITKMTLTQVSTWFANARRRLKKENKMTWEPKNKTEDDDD
# Assay: PBM E-score (8-mer, recovered from the published 9-mer minima) (E-score (dimensionless, -0.5 to 0.5)); Drosophila protein; higher = stronger relative binding preference, active = 0.31 or more
# Summary of the method: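 An enrichment score, with higher meaning stronger, expresses relative binding preference for each short DNA word. The protein used was Caup's homeodomain DNA-binding domain (residues 214-303), produced by in vitro transcription and translation and tested at 100 nM on custom-designed protein binding microarrays. The 8-mer values were recovered from published 9-mer scores, each equal to the lower of its two constituent 8-mer scores.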
row,Sequence,PBM E-score
1,CCTGGGCA,inactive: -0.202
2,CGTCCGGA,inactive: -0.133
3,ACGTCTAT,inactive: 0.0892
4,CCATCAAG,inactive: -0.0956
5,ACCATCCA,inactive: 0.0462
6,CCCCATGA,inactive: -0.123
7,AGAAAACG,inactive: -0.0622
8,GGACTCCA,inactive: -0.13
9,ATTATATA,inactive: 0.201
10,AGGCCGCA,inactive: -0.146
11,CCGACACA,inactive: 0.127
12,GCCGGTGA,inactive: -0.118
13,AATCGCCG,inactive: -0.0738
14,CACCGTCC,inactive: -0.0881
15,CGATATCA,inactive: 0.129
16,ACTGTTCA,inactive: 0.0851
17,AGGTCCAT,inactive: 0.0386
18,CACTCACA,inactive: -0.0111
19,TCGCTAAA,inactive: 0.0105
20,AACGCAGC,inactive: -0.109
21,AAGGTAGT,inactive: 0.0568
22,CGCTTGAG,inactive: -0.188
23,AAGCGACA,inactive: 0.219

row,Sequence,PBM E-score
1,GACACATA,inactive: 0.264
2,AGGAACTC,inactive: -0.0905
3,AGTAACGA,inactive: 0.107
4,AATTTCGT,inactive: 0.11
5,AGATAAAA,inactive: 0.102
6,CAGCCGCA,inactive: -0.26
7,GCAATCGA,inactive: 0.00674
8,ACCAGCGA,inactive: -0.00099
9,CGGGTAAC,inactive: -0.0112
10,ACGTCATG,inactive: 0.15
11,ATTACGCG,inactive: 0.0345
12,ATCCTCAA,inactive: -0.00625
13,ACCTTTGA,≥ 0.0766
14,ATTGACAG,inactive: 0.143
15,GAAAGTCC,inactive: -0.191
16,AAATTAGA,inactive: 0.0875
17,TCCAATCA,inactive: -0.0648
18,CTCGTTGA,inactive: 0.0362
19,CACCGGAA,inactive: 0.0119
20,CCATGTGA,inactive: 0.0957
21,GTATCCAA,inactive: 0.0602
22,GAATTCAC,inactive: 0.00741
23,AGACTCAG,inactive: -0.132

row,Sequence,PBM E-score
1,AGGACTGC,inactive: -0.157
2,CACCGATG,inactive: 0.08
3,CCCGATTA,inactive: 0.0243
4,GGAGGACC,inactive: -0.246
5,AGATTTTA,inactive: 0.0905
6,GCGAAGCA,inactive: -0.0528
7,CGCAGTTC,inactive: -0.0558
8,AGTAGCCC,inactive: -0.129
9,AGTGGCAT,inactive: -0.0302
10,CCACTAAG,inactive: -0.0833
11,CTTCGGGC,inactive: -0.167
12,GGTACTAC,inactive: 0.202
13,CACACCAG,inactive: 0.004
14,AATCCCCA,inactive: 0.0171
15,ACGACGCA,≥ 0.0334
16,CGGACTAA,inactive: 0.00339
17,AGTTTTGC,inactive: 0.11
18,TAGCTAAA,inactive: -0.0173
19,GGGAAGAC,inactive: -0.0997
20,AGGGATGG,inactive: -0.126
21,CTGCACAG,inactive: -0.0769
22,ACAGACCA,inactive: 0.0424
23,ATAGAACC,inactive: -0.103

row,Sequence,PBM E-score
1,CAGAGGAC,inactive: -0.0306
2,ACTAGTAT,inactive: 0.243
3,CCGGAGAC,inactive: -0.0838
4,ACGGATCT,inactive: 0.0142
5,GTGGGCGA,inactive: -0.0754
6,GTATTCGA,inactive: -0.00876
7,CTAGCCAC,inactive: -0.151
8,CCATGAAA,inactive: 0.00449
9,GCGTTGTA,inactive: 0.249
10,CTTAGCTA,inactive: 0.0209
11,ACGCCTCG,inactive: -0.144
12,CTTCTCTC,inactive: -0.0737
13,ATCACCAG,inactive: 0.0151
14,GGTAGTCA,inactive: 0.0126
15,ACTGAAAA,inactive: -0.0487
16,CGCGGATA,inactive: 0.00665
17,ACGAACGC,inactive: -0.0517
18,ACGTTAGG,inactive: -0.057
19,TAAAGAAA,inactive: 0.0618
20,AGCTACGC,inactive: -0.0814
21,ACATGGGT,inactive: 0.284
22,TCATAGGA,inactive: 0.114
23,AAGGATAG,inactive: 0.012

row,Sequence,PBM E-score
1,CTGACCGC,inactive: -0.184
2,GGAACTCA,inactive: -0.0653
3,AGTAGCAC,inactive: -0.0118
4,TCATGGAA,inactive: 0.0375
5,ACAAGGGT,inactive: 0.214
6,ATCGTGTG,inactive: 0.149
7,CTGTTGAA,inactive: 0.154
8,CTTTCCTA,inactive: -0.094
9,AGGTTGGA,inactive: -0.0253
10,CAACGTTC,inactive: -0.0881
11,ATTTCACC,inactive: 0.0435
12,GTACAAAA,active: 0.323
13,TACCCCGA,inactive: -0.11
14,ACTCAAGG,inactive: -0.115
15,AGAAGTAG,inactive: 0.0359
16,CAGTTGTA,inactive: 0.214
17,CGTCAATC,inactive: 0.0893
18,ATATCCCA,inactive: -0.0219
19,ACAGGCCA,inactive: -0.0578
